PubChem BioAssay AID1159614 (National Center for Advancing Translational Sciences (NCATS), 2016)
The campaign covered roughly 45,000 compounds. About 65 (0.1%) were called active. Calls follow the shape of the dose curve; as a rule, active = well fitted activation curve with a large enough effect; inconclusive = small, poorly fitted or top-dose-only effect; inactive = no such curve, though single readings can be large or run the other way. The list shows a part of the results.

Biological target: Galactocerebrosidase (Homo sapiens) (UniProt P54803)
UniProt P54803, sequence (P54803 whole entry, looked up): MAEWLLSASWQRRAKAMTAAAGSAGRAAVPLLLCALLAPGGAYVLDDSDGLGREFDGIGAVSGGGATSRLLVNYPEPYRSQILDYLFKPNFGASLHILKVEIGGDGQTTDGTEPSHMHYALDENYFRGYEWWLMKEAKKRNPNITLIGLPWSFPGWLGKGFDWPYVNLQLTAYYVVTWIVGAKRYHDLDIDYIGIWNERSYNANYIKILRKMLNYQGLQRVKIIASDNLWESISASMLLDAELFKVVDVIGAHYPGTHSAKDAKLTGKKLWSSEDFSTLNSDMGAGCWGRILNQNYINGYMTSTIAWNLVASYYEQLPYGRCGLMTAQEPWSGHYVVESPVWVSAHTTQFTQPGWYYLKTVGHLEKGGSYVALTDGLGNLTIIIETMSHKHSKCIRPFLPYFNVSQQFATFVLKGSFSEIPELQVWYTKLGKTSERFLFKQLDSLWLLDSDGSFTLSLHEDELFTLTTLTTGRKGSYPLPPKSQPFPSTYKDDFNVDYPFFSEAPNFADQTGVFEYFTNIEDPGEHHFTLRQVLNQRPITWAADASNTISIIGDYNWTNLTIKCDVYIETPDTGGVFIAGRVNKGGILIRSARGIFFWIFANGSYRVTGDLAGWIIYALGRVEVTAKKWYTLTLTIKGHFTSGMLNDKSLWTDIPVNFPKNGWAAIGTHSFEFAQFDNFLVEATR
Experiment: A Novel Cell-Based Assay to Identify Small Molecules for B -Galactocerebrosidase; also: 0% is about no effect; nearly all actives have a fitted effect of over 65% in size
Conditions: 145M-Twi-hGALC-G270D cells (Twitcher mouse brain line with human GALC G270D), HMU-beta-Gal fluorescence, 48 h; series mostly up to 57.5 µM; activation: at the top concentration
How it was run: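 Mutant human GALC (G270D), stably expressed in a Twitcher mouse brain cell line lacking endogenous GALC, is measured in live-treated cells via 6-hexadecanoylamino-4-methylumbelliferyl-β-galactoside hydrolysis (0.1 mM final, pH 5.2) with fluorescent detection.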

activation, inactive:
Oc1ccc(Cl)cc1Cc1cc(Cl)ccc1O -5.63%
CCc1cccc(C)c1NS(=O)(=O)c1c(C(=O)N2CCC(C)CC2)c(C)n(C)c1C -8.36%
COc1ccc(NC(=O)c2cc(S(=O)(=O)N3CCOCC3)ccc2OC)cc1 -8.65%
NS(=O)(=O)c1cc(C(=O)O)c(NCc2ccco2)cc1Cl -11.7%
Cc1nnc(N2CCC(C(=O)NC3CCCCC3)CC2)c2nn(-c3ccccc3)c(C)c12 -7.62%
COc1cccc(CNC(=O)c2ccc3c(c2)c(C)c(C)n3Cc2ccccc2)c1 -4.81%
COc1ccc(CNC(=O)c2cc3cc4cc(OC)ccc4nc3o2)cc1 -16%
NC(=O)C1CCN(C(=O)c2ccc(NC(=O)c3nsc4ccccc34)cc2)CC1 -7.77%
CCOc1ccccc1N(CC)C(=O)Cn1ncc2c([nH]c3ccccc32)c1=O -15%
COc1ccc(OC)c(NS(=O)(=O)c2ccc3c(c2)C(C)(C)C(=O)N3C)c1 -9.25%
COc1cc(Cl)c(C)cc1NC(=O)C1CCN(c2nc3ccccc3n3cccc23)CC1 -34.5%
Cc1ccc(C)c(NC(=O)N2CCN(C(=O)c3nsc4ccccc34)CC2)c1 -10.7%
O=C(c1ccccc1)N1CCN(CCc2ccncc2)CC1 3.25%
CC(=O)c1ccc(NC(=O)c2nc3ccccc3nc2N2CCCCC2)cc1 -7.2%
Clc1cccc(-c2ccc(CNCCSc3nnnn3-c3ccccc3)o2)c1 -14.9%
COC(=O)c1ccc2c(c1)N(Cc1ccc(F)cc1)C(=O)c1ccccc1S2 -8.95%
Cn1c(NCCO)nc2c1c(=O)n(Cc1cccc(F)c1)c(=O)n2C -8.93%
CCCCN1C(=O)C(O)(c2c[nH]c3ccccc23)c2cc(Br)ccc21 (stereo unspecified) -2.24%
CCCCN(CCCC)S(=O)(=O)c1ccc2oc(C(=O)NCc3ccc(C)cc3)c(C)c2c1 22.4%
CCc1ccc(-c2[nH]c3c(c2-c2sc(C)c(C(=O)OC)c2O)c(=O)[nH]c(=O)n3C)cc1 -8.37%
Cc1coc2c(C)c3oc(=O)c(CCC(=O)NCCc4ccccc4)c(C)c3cc12 -9.33%
Cc1nn(C(=O)c2ccc(Br)cc2)c(C)c1S(=O)(=O)N1CCOCC1 -8.87%
COc1ccc(-c2cc(C(F)(F)F)nc(SCCC(=O)Nc3cc(C)ccc3O)n2)cc1 -15.7%
COc1ccc2c(c1)sc1ncc(C(=O)NCc3ccc(OC(C)C)cc3)c(=O)n12 -7.05%
O=C(CCCN1CCN(c2ccc(F)cc2)CC1)NC1c2ccccc2CSc2ccccc21 (stereo unspecified) 0.198%
CCOc1ccc(CCNC(=O)c2cnc3c(-c4ccc(F)cc4)c(C)nn3c2C)cc1OCC 3.25%
Cc1ccc(NC(=O)Cn2c(=O)n(Cc3ccco3)c(=O)c3sc4ccccc4c32)cc1C -10.1%
Oc1c(C(c2ccc(Cl)cc2)N2CCC3(CC2)OCCO3)sc2nc(-c3ccco3)nn12 (stereo unspecified) -10.7%
CCn1c(=O)c(C(=O)Nc2ccc(C(C)=O)cc2)nc2ccccc21 -13.7%
O=C(Cn1c(=O)oc2ccccc21)Nc1ccc(C(=O)O)cc1 -5.96%
COc1cc(NC(=O)c2cccc3c2C(=O)N(C2CCCCC2)C3)cc(OC)c1 3.64%
CCOc1ccccc1NC(=O)CSc1nc2cc(OC)c(OC)cc2c2nc(-c3ccccc3)nn12 -23.2%
COc1ccccc1OCCSc1nc2ccccc2n1CC(=O)N1CCOCC1 7.68%
C#CCSc1nc2sc3c(c2c(=O)n1Cc1ccccc1)CCCC3 4%
COc1ccc(NC(=O)c2sc3nc(-c4ccc(OC)cc4)cc(C(F)(F)F)c3c2N)cc1 -9.18%
Cc1ccc(C)c(CN2C(=O)c3ccccc3S(=O)(=O)c3ccc(C(=O)N4CCN(c5ccccc5)CC4)cc32)c1 -11.2%
CC1CCCCN1S(=O)(=O)c1ccc(C(=O)Nc2sc3c(c2C(N)=O)CC(C)(C)NC3(C)C)cc1 (stereo unspecified) -27.5%
Cc1ccccc1Nc1c(-c2ccco2)nc2c(C)cccn12 -10.3%
Cc1n[nH]c(C)c1S(=O)(=O)N(CC(=O)Nc1ccc(C(F)(F)F)cc1)c1ccc(C(C)C)cc1 -15.9%
Cc1ccc(CS(=O)(=O)c2ncc(Cl)c(C(=O)Nc3nc4ccc(C)cc4s3)n2)cc1 -7.32%
Cc1ccc(-c2onc(C)c2C)cc1S(=O)(=O)N1c2ccccc2CC1C (stereo unspecified) -15.7%
COc1ccc(CCNC(=O)c2c(O)nc3c(C)cccn3c2=O)cc1 -14.2%
Cc1cccc(NC(=O)Cn2c(=O)n(CCCS(=O)(=O)C3CCCCC3)c(=O)c3ccccc32)c1 1.06%
CCCCN(CCCC)CCNC(=O)Cn1nc(CC)n2c(cc3sc(C)cc32)c1=O -5.95%
O=S1(=O)c2ccccc2N(Cc2cccc(C(F)(F)F)c2)c2ccccc21 -7.49%
CCOC(=O)c1ccc(-n2c(C)nc3c(cnn3-c3ccc(Cl)cc3)c2=O)cc1 -12.3%
CCOCCCNC(=O)c1[nH]c2cc(C)ccc2c1Sc1ccc(Cl)cc1 -11.8%
COc1cccc(-c2nc(SCC(=O)Nc3ccc4c(c3)OCCO4)c(-c3ccccc3)[nH]2)c1 -13.8%
O=C(NCCn1cc(SCc2ccc(Cl)cc2)c2ccccc21)c1cccs1 -8.05%
CN(C)CCNC(=O)Cn1c(=O)c2cccn2c2ccc(F)cc21 9.35%
COc1cc(OC)c(N(C)C(=O)CCNC(=O)Cn2cnc3ccccc3c2=O)cc1Cl -3.19%
CCOCCc1nn2c(=O)cc(COC(=O)c3ccccc3NC(=O)C3CCCCC3)nc2s1 -6.4%
COc1ccccc1-c1nc2c(c(SCC(=O)Nc3ccc(C)c(C)c3)n1)Cc1c(CO)cnc(C)c1O2 -5.09%
Cc1ccccc1NC(=O)Cn1c(=O)oc2cc(Br)ccc21 -3.03%
Cc1ccc(NC(=O)c2cccc3c2C(=O)N(C2CCCCC2)C3)c(C)c1 -2.35%
COc1ccc(C2=C(C)C(=NCCCN3CCN(c4cc(C)ccc4C)CC3)NS2(=O)=O)cc1 -11.7%
COc1ccc(N(CC(=O)Nc2cccc(Cl)c2C)S(=O)(=O)c2c(C)nn(C)c2C)cc1 -11.1%
COc1cccc(Cn2c(CNC(=O)Cc3cccc(C)c3)nc3cccnc32)c1 -6.74%
Cc1ccc(C)c(NC(=O)Cn2cc(C(=O)c3ccco3)c3ccccc32)c1 -12.3%
CCCCN(CC)CCCNC(=O)c1nn(C)c2c1CS(=O)(=O)c1ccccc1-2 -7.67%
CCc1c(C)sc(NC(=O)c2cc(-c3cccc(Cl)c3)on2)c1C#N -20.7%
